IC50 is the fitted dose that halves viability relative to control wells, and lower means more sensitive; a limit (>, <) means that the fit lies beyond the doses tested. AUC is the area under the same curve over the 256-fold range up to the top dose, as a fraction; the more sensitive the line, the further below 1. A top dose marked as inferred was calculated from the reported fits.
Tests used:
Test in all cases: Viability of human cancer cell lines after 72 h of drug (GDSC screen)
PFI-1 = compound: COc1ccccc1S(=O)(=O)Nc1ccc2c(c1)CN(C)C(=O)N2 [PFI-1]; details: top dose 10 µM; top dose inferred
Protocol: (§1)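 Human cancer cell lines in 384-well plates, medium with 10% serum, drug for 72 h over a 256-fold dose range (nine 2-fold or five 4-fold steps up to the top dose). Adherent lines were fixed and stained with the nucleic acid dye Syto60, suspension lines read with resazurin; signal relative to control wells, capped at 0 and 100%. One two-parameter sigmoid per drug and line, fitted in a mixed model over all curves with the slope shared within a line.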

GSK-1904529A = compound: CCc1cc(Nc2nccc(-c3c(-c4ccc(OC)c(C(=O)Nc5c(F)cccc5F)c4)nc4ccccn34)n2)c(OC)cc1N1CCC(N2CCN(S(C)(=O)=O)CC2)CC1 [GSK-1904529A]; details: top dose 1.024 µM; top dose inferred
Protocol: as §1

NG-25 = compound: CCN1CCN(Cc2ccc(NC(=O)c3ccc(C)c(Oc4ccnc5[nH]ccc45)c3)cc2C(F)(F)F)CC1 [NG-25]; details: top dose 10.24 µM; top dose inferred
Protocol: as §1

Tipifarnib = compound: Cn1cncc1[C@@](N)(c1ccc(Cl)cc1)c1ccc2c(c1)c(-c1cccc(Cl)c1)cc(=O)n2C [Tipifarnib]; details: top dose 16 µM; top dose inferred
Protocol: as §1

| Cell Line | AUC (PFI-1) | IC50 (PFI-1) [µM] | AUC (GSK-1904529A) | IC50 (GSK-1904529A) [µM] | AUC (NG-25) | IC50 (NG-25) [µM] | AUC (Tipifarnib) | IC50 (Tipifarnib) [µM] |
| --- | --- | --- | --- | --- | --- | --- | --- | --- |
| T-24 (bladder, adherent) | 0.844 | 6.66 | 0.984 | > 1.02 | 0.949 | > 10.2 | 0.747 | 4.9 |
| T-T (oesophagus, adherent) | 0.937 | > 10 | 0.949 | > 1.02 | 0.838 | 6.87 | 0.425 | 0.626 |
| TCCSUP (bladder, adherent) | 0.903 | > 10 | 0.984 | > 1.02 | 0.881 | > 10.2 | 0.691 | 3.73 |
| TGBC11TKB (stomach, adherent) | 0.969 | > 10 | 0.992 | > 1.02 | 0.973 | > 10.2 | 0.973 | > 16 |
| TK (B-cell lymphoma, suspension) | 0.948 | > 10 | 0.989 | > 1.02 | 0.821 | 5.26 | 0.529 | 1.19 |
| TMK-1 (stomach, adherent) | 0.915 | > 10 | 0.97 | > 1.02 | 0.915 | > 10.2 | 0.767 | 6.3 |
| TOV-21G (ovary, adherent) | 0.887 | > 10 | 0.985 | > 1.02 | 0.978 | > 10.2 | 0.985 | > 16 |
| TOV-112D (ovary, adherent) | 0.821 | 5.83 | 0.915 | > 1.02 | 0.874 | 10.1 | 0.329 | 0.332 |
| TT2609-C02 (thyroid, adherent) | 0.948 | > 10 | 0.977 | > 1.02 | 0.827 | 6.81 | 0.479 | 0.873 |
| TT (thyroid, adherent) | 0.932 | > 10 | 0.948 | > 1.02 | 0.972 | > 10.2 | 0.893 | > 16 |
| TYK-nu (ovary, adherent) | 0.866 | > 10 | 0.944 | > 1.02 | 0.968 | > 10.2 | 0.845 | 12.8 |
| U031 (kidney, adherent) | 0.552 | 0.87 | 0.964 | > 1.02 | 0.981 | > 10.2 | 0.633 | 2.36 |
| U251 (glioma, adherent) | 0.821 | 5.44 | 0.982 | > 1.02 | 0.822 | 5.62 | 0.751 | 5.06 |
| U-118-MG (glioma, adherent) | 0.919 | > 10 | 0.97 | > 1.02 | 0.958 | > 10.2 | 0.781 | 7.73 |
| UACC-62 (melanoma, adherent) | 0.689 | 2.1 | 0.983 | > 1.02 | 0.981 | > 10.2 | 0.816 | 8.72 |
| UACC-893 (breast, adherent) | 0.962 | > 10 | 0.971 | > 1.02 | 0.838 | > 10.2 | 0.746 | 6.59 |
| UM-UC-3 (bladder, adherent) | 0.925 | > 10 | 0.985 | > 1.02 | 0.843 | 6.58 | 0.831 | 9.25 |
| UMC-11 (lung carcinoid, adherent) | 0.835 | 5.62 | 0.991 | > 1.02 | 0.879 | 8.56 | 0.927 | > 16 |
| VAL (B-cell lymphoma, suspension) | 0.905 | > 10 | 0.984 | > 1.02 | 0.462 | 0.505 | 0.664 | 2.86 |
| VM-CUB-1 (bladder, adherent) | 0.864 | 8.22 | 0.983 | > 1.02 | 0.987 | > 10.2 | 0.647 | 2.52 |
| VMRC-MELG (melanoma, adherent) | 0.887 | > 10 | 0.985 | > 1.02 | 0.913 | > 10.2 | 0.967 | > 16 |
| VMRC-RCZ (kidney, adherent) | 0.955 | > 10 | 0.982 | > 1.02 | 0.855 | > 10.2 | 0.617 | 2.21 |
| WM35 (melanoma, adherent) | 0.76 | 3.55 | 0.971 | > 1.02 | 0.754 | 3.47 | 0.682 | 3.24 |
| WM278 (melanoma, adherent) | 0.911 | > 10 | 0.979 | > 1.02 | 0.771 | 4.43 | 0.443 | 0.683 |
| WM793B (melanoma, adherent) | 0.901 | > 10 | 0.976 | > 1.02 | 0.827 | 7.18 | 0.504 | 1.03 |
| WM1552C (melanoma, adherent) | 0.881 | > 10 | 0.983 | > 1.02 | 0.988 | > 10.2 | 0.591 | 1.78 |
| WM-115 (melanoma, adherent) | 0.905 | > 10 | 0.957 | > 1.02 | 0.869 | > 10.2 | 0.965 | > 16 |
| YAPC (pancreas, adherent) | 0.983 | > 10 | 0.985 | > 1.02 | 0.982 | > 10.2 | 0.899 | > 16 |
| YKG-1 (glioma, adherent) | 0.927 | > 10 | 0.987 | > 1.02 | 0.922 | > 10.2 | 0.377 | 0.456 |
| huH-1 (liver, adherent) | 0.938 | > 10 | 0.981 | > 1.02 | 0.984 | > 10.2 | 0.823 | 12.5 |
